Data: PubChem BioAssay AID485294 (National Center for Advancing Translational Sciences (NCATS), 2010)
About 150 (0.041%) of roughly 370,000 compounds were called active. Inconclusive means that the source gave no clear call. Such entries were picked first, then a sample of the others. Calls come from the whole dose curve; as a rule, active = well fitted inhibition curve with a large enough effect; inconclusive = small, poorly fitted or top-dose-only effect; inactive = flat fitted curve, though single readings scatter. Potencies of inconclusive entries are left out as doubtful fits.

Biological target: Beta-lactamase (Escherichia coli (strain K12)) (UniProt P00811)
UniProt P00811, sequence (P00811 whole entry, looked up): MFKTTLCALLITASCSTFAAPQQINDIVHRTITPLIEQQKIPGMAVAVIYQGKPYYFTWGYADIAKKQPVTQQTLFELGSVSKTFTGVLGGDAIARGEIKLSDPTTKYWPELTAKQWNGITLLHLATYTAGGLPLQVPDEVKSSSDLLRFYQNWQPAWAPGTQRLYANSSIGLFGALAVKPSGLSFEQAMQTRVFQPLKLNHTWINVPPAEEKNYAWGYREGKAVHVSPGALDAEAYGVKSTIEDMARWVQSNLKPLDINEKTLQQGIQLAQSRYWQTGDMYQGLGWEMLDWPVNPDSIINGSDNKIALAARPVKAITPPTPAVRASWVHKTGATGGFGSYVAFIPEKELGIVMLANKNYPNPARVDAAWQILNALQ
Assay: qHTS Inhibitors of AmpC Beta-Lactamase (assay with detergent); note: nearly all actives have a fitted effect of over 25% in size
Conditions: AmpC hydrolysis of nitrocefin, absorbance 480 nm, 0.01% Triton; series mostly up to 114 µM
How it was run: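 AmpC (5.3 nM in the dispensed reagent) in 20 mM phosphate pH 7.0 with 0.01% (detergent screen) or 0.0001% Triton X-100 was preincubated with compounds for 15 min at room temperature. Nitrocefin was then added from an 800 uM solution, and hydrolysis was followed at 480 nm.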
Potency is the fitted concentration of half-maximal effect; tags give direction and shape of the fitted curve.

**Q.** Which Potency does the source give for CCS(=O)(=O)N1CCN(c2ccc(Cl)cc2[N+](=O)[O-])CC1 here?
**A.** inconclusive [inhibitor, full curve]

**Q.** For O=C(NCc1ccccc1)C(c1ccco1)N(C(=O)c1ccccn1)c1ccc(F)cc1 (stereo not drawn), which Potency is on record?
**A.** inconclusive [inhibitor, full curve, poor fit]

**Q.** CC(=O)c1ccc(NC(=O)C2(S(=O)(=O)c3ccccc3)CC2)cc1 was tested. Which Potency did it give?
**A.** inconclusive [inhibitor, single point]

**Q.** How did the Potency turn out when CC(=O)N1CCc2c(sc3c2c(=O)n(CCc2ccccc2)c(=O)n3CC(=O)Nc2ccccc2F)C1 was run?
**A.** inactive

**Q.** Which Potency does the source give for COc1ccccc1NC(=O)c1oc2ccccc2c1NC(=O)Cc1cccs1 here?
**A.** inactive

**Q.** With CCCC(=O)Nc1ccc(S(=O)(=O)Nc2cc(C)nc(C)n2)cc1 as the molecule, how does the Potency read?
**A.** inconclusive [inhibitor, partial curve]

**Q.** With Cc1nccn1-c1ncnc2sc3c(c12)CCCC3 as the molecule, how does the Potency read?
**A.** inconclusive [inhibitor, partial curve, poor fit]

**Q.** For COc1ccc(/C=N/OCC(=O)Nc2ccc3c(c2)OCO3)c(OC)c1, which Potency is on record?
**A.** inactive

**Q.** With Cc1cc(C)c2c(CN3CCN(Cc4ccccc4)CC3)cc(=O)oc2c1 as the molecule, how does the Potency read?
**A.** inconclusive [inhibitor, partial curve, poor fit]

**Q.** CCOC(=O)c1c(C)n(C)c2ccc(OCC(N)=O)cc12 was tested. Which Potency did it give?
**A.** inconclusive [inhibitor, full curve, poor fit]

**Q.** CS(=O)(=O)N1CCCC(C(=O)NCc2ccc(F)cc2Cl)C1 (stereo not drawn) was tested. Which Potency did it give?
**A.** inconclusive [inhibitor, full curve, poor fit]

**Q.** Which Potency does the source give for N=c1n(CCN2CCCC2)c2ccccc2n1CC(O)c1ccco1 (stereo not drawn) here?
**A.** inconclusive [inhibitor, full curve, poor fit]

**Q.** Cn1nc(C(=O)OCC(=O)NCCc2ccccc2)c2ccccc2c1=O was tested. Which Potency did it give?
**A.** inactive

**Q.** With CCOc1ccccc1N1C(=O)NC(=O)C(CCc2ccncc2)(CCc2ccncc2)C1=O as the molecule, how does the Potency read?
**A.** inconclusive [inhibitor, full curve, poor fit]

**Q.** Cc1cc(OC(C)C(=O)NNC(=O)Nc2ccc(F)cc2F)cc(C)c1Cl (stereo not drawn) was tested. Which Potency did it give?
**A.** inconclusive [inhibitor, partial curve, poor fit]

**Q.** CCC1=NN2C(=N)/C(=C\c3ccc(OCCOc4ccc(NC(C)=O)cc4)cc3)C(=O)N=C2S1 was tested. Which Potency did it give?
**A.** inactive

**Q.** With CCc1cc2c(=O)[nH]c(N3CCCC3)nc2s1 as the molecule, how does the Potency read?
**A.** inactive

**Q.** Cc1ccc(C2N(C)c3ccccc3-c3nc4ccccc4n32)o1 (stereo not drawn) was tested. Which Potency did it give?
**A.** inconclusive [inhibitor, full curve]

**Q.** Which Potency does the source give for Cc1cc(C)c(OCC(=O)Nc2nc(-c3ccccn3)cs2)c(C)c1 here?
**A.** inactive

**Q.** How did the Potency turn out when CCOc1ccc(C(=O)NCc2ccncc2)cc1 was run?
**A.** inactive

**Q.** Which Potency does the source give for CC(C)(C)NC(=O)CSc1nnc(C2CC2)n1-c1ccccc1 here?
**A.** inconclusive [inhibitor, full curve, poor fit]

**Q.** How did the Potency turn out when CCN(CC)S(=O)(=O)c1ccc(OC)c(NS(=O)(=O)Cc2ccccc2)c1 was run?
**A.** inconclusive [inhibitor, full curve, poor fit]

**Q.** O=C(NCCc1c[nH]c2ccccc12)OCCCCOC(=O)NCCc1c[nH]c2ccccc12 was tested. Which Potency did it give?
**A.** inconclusive [inhibitor, single point]

**Q.** With COc1ccc(/C=C(\NC(=O)c2ccc(OC)cc2)C(=O)Nc2ccccc2C(=O)O)cc1 as the molecule, how does the Potency read?
**A.** inconclusive [inhibitor, single point]

**Q.** CCOC(=O)c1ccc(S(=O)(=O)N2CCN(CC(=O)NC(=O)NC3CCCCC3)CC2)cc1 was tested. Which Potency did it give?
**A.** inconclusive [inhibitor, full curve]

**Q.** Cc1ccccc1OCCC(=O)OCC(=O)N1c2ccccc2NC(=O)C1(C)C was tested. Which Potency did it give?
**A.** inconclusive [inhibitor, full curve]

**Q.** Cc1ccc(S(=O)(=O)NC(=O)c2ccc(-c3ccc(C)c4ccccc34)o2)cc1 was tested. Which Potency did it give?
**A.** inconclusive [inhibitor, full curve, poor fit]

**Q.** With O=C(Nc1cccc(-c2nc3ncccc3o2)c1)c1cc2ccccc2o1 as the molecule, how does the Potency read?
**A.** inactive

**Q.** Cc1nc(N)c(C#N)c(-c2cccnc2)c1C was tested. Which Potency did it give?
**A.** inconclusive [inhibitor, partial curve, poor fit]

**Q.** With O=C(N/N=C/c1ccncc1)c1cccc(NC(=O)c2ccccc2Cl)c1 as the molecule, how does the Potency read?
**A.** inconclusive [inhibitor, partial curve, poor fit]

**Q.** CCC(=O)N/N=C(\C)CC(=O)Nc1cc(Cl)ccc1C was tested. Which Potency did it give?
**A.** inconclusive [inhibitor, full curve]

**Q.** For CCOc1ccc(/C=C/c2nc(C#N)c(NC3CCCCC3)o2)cc1, which Potency is on record?
**A.** inactive

**Q.** Which Potency does the source give for O=C(CCCN1C(=O)/C(=C/c2ccccc2)SC1=S)Nc1ccc(C(=O)O)c(O)c1 here?
**A.** inactive

**Q.** How did the Potency turn out when COc1cc(NC(=O)CCS(=O)(=O)c2ccc3c(c2)oc(=O)n3C)cc(OC)c1OC was run?
**A.** inactive

**Q.** Cc1cc(Cl)ccc1NC(=O)CN1CCCC1 was tested. Which Potency did it give?
**A.** inconclusive [inhibitor, full curve, poor fit]

**Q.** For S=C1NCN(Cc2ccccc2)CN1C1CCCCC1, which Potency is on record?
**A.** inconclusive [inhibitor, partial curve]

**Q.** For CCCn1c(=N)n(CC(O)COc2ccc(C)cc2)c2ccccc21 (stereo not drawn), which Potency is on record?
**A.** inactive

**Q.** CCOC(=O)c1nn(-c2ccccc2C)c2nc(Nc3ccccc3)cc(=O)n12 was tested. Which Potency did it give?
**A.** inconclusive [inhibitor, partial curve]

**Q.** For COc1ccc(NC(=O)Nc2ccc3c(c2)CCC3)cc1, which Potency is on record?
**A.** inactive

**Q.** Which Potency does the source give for Cc1ccc(/C=N/n2nnnc2N)o1 here?
**A.** inconclusive [inhibitor, partial curve, poor fit]

**Q.** How did the Potency turn out when Cc1nn(-c2ccccc2)c(N)c1C1(O)C(=O)N(C)c2ccccc21 (stereo not drawn) was run?
**A.** inconclusive [inhibitor, partial curve, poor fit]

**Q.** C=CCn1c(NCCO)nc2sc3c(c2c1=O)CCC3 was tested. Which Potency did it give?
**A.** inconclusive [inhibitor, full curve, poor fit]

**Q.** How did the Potency turn out when O=C(NCC1CCCO1)c1ccc(NC(=O)c2cccc([N+](=O)[O-])c2)cc1 (stereo not drawn) was run?
**A.** inconclusive [inhibitor, single point]

**Q.** For CCn1nc(NC(=O)c2ccccc2)c2cc3cccc(C)c3nc21, which Potency is on record?
**A.** inactive

**Q.** Which Potency does the source give for NC(=O)C1CCN(c2nc(-c3ccc(F)cc3)cs2)CC1 here?
**A.** inconclusive [inhibitor, full curve, poor fit]

**Q.** With CC(C)(C)Nc1c([N+](=O)[O-])c(=O)sc2ccccc12 as the molecule, how does the Potency read?
**A.** inconclusive [inhibitor, single point]

**Q.** With Cc1cc(=O)n2nc(N3CCCC3C(=O)NCCCN3CCCCC3)sc2n1 (stereo not drawn) as the molecule, how does the Potency read?
**A.** inconclusive [inhibitor, partial curve, poor fit]

**Q.** How did the Potency turn out when O=Cc1ccc(N2N=C(c3ccccc3)CC2c2ccccc2)cc1 (stereo not drawn) was run?
**A.** inconclusive [inhibitor, single point]

**Q.** For COc1ccc(N(CC(=O)NCCSCc2ccccc2C)S(=O)(=O)c2ccccc2)cc1, which Potency is on record?
**A.** inactive

**Q.** CCn1c(CSc2nnc3ccccn23)nc2cc(C(=O)O)ccc21 was tested. Which Potency did it give?
**A.** inconclusive [inhibitor, full curve, poor fit]

**Q.** How did the Potency turn out when O=C(CN1CCSCC1)c1c[nH]c2ccccc12 was run?
**A.** inconclusive [inhibitor, full curve, poor fit]

**Q.** For NS(=O)(=O)c1ccc(CCNC(=O)c2cccnc2)cc1, which Potency is on record?
**A.** inconclusive [inhibitor, partial curve, poor fit]

**Q.** For Cc1nnc(NCc2ccco2)s1, which Potency is on record?
**A.** inactive

**Q.** COc1cc(Cl)c(C)cc1NC(=O)CN(C)Cc1cccc(OC)c1OC was tested. Which Potency did it give?
**A.** inconclusive [inhibitor, partial curve]

**Q.** With COc1ccccc1CNC(=O)c1ccc2c(c1)N(Cc1cc(C)ccc1C)C(=O)c1ccccc1S2 as the molecule, how does the Potency read?
**A.** inactive

**Q.** Which Potency does the source give for CC(C)(O)c1cc(=O)sc2nc3ccccc3n12 here?
**A.** inconclusive [inhibitor, partial curve, poor fit]

**Q.** With S=c1[nH]nc(COc2cccc(Cl)c2)n1Cc1ccccc1 as the molecule, how does the Potency read?
**A.** inconclusive [inhibitor, full curve, poor fit]

**Q.** Which Potency does the source give for O=C(Nc1cccc(C(F)(F)F)c1)C1C2CC3OC(=O)C1C3C2 (stereo not drawn) here?
**A.** inconclusive [inhibitor, full curve, poor fit]

**Q.** For CCOC(=O)c1cnc2ccc(C)cc2c1OCc1cc(F)cc(F)c1, which Potency is on record?
**A.** inconclusive [inhibitor, single point]

**Q.** Which Potency does the source give for Cc1cccc(OCC(=O)Nc2ccc3nc(Nc4cccc(C(F)(F)F)c4)cc(C)c3c2)c1 here?
**A.** inactive

**Q.** Which Potency does the source give for CC(C)c1cc(C(=O)Nc2cccc(C(F)(F)F)c2)no1 here?
**A.** inactive

**Q.** How did the Potency turn out when Cc1nc(SCc2ccc(F)cc2)c([N+](=O)[O-])[nH]1 was run?
**A.** inconclusive [inhibitor, full curve, poor fit]

**Q.** With O=C(CN1CCCCCC1)Nc1ccc(F)c(F)c1F as the molecule, how does the Potency read?
**A.** inconclusive [inhibitor, single point]

**Q.** How did the Potency turn out when COc1ccc(-c2nnc(SCc3c(C)noc3C)n2N)cc1OC was run?
**A.** inactive

**Q.** For CCn1c(SCC(=O)c2ccc(O)c(O)c2)nnc1-c1ccc(C)cc1, which Potency is on record?
**A.** inconclusive [inhibitor, single point]

**Q.** Which Potency does the source give for O=C(Nc1ncc(S(=O)(=O)c2ccc([N+](=O)[O-])cc2)s1)c1cccc2ccccc12 here?
**A.** inconclusive [inhibitor, full curve, poor fit]

**Q.** How did the Potency turn out when COC(=O)c1[nH]c2ccc(C)cc2c1NC(=O)Oc1ccccc1 was run?
**A.** inconclusive [inhibitor, full curve, poor fit]

**Q.** Cc1ccc(NC(=O)c2ccc(CNc3c(N4CCOCC4)c(=O)c3=O)cc2)cc1 was tested. Which Potency did it give?
**A.** inconclusive [inhibitor, partial curve]
